Laboratory results from PubChem BioAssay AID360 (National Center for Advancing Translational Sciences (NCATS), 2006).
Among all 48,000 compounds or so, about 550 (1.1%) were called active. Another 4% or so got no clear call; they are omitted. Cut-off read from the data, not from the text of the source: active = potency below about 15 µM; inconclusive = mostly about 16 µM to 33 µM; inactive = weaker than that. The list shows a part of the results.
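Note: the screen sought inhibitors.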
Potency is the fitted concentration of half-maximal effect.

What follows are compounds tested against Lysosomal acid glucosylceramidase (Homo sapiens) (UniProt P04062) (assay: Glucocerebrosidase). Details: purified enzyme, resorufin glucoside fluorescence (screen aimed at inhibitors), 20 min.
Sequence of UniProt P04062 (P04062 whole entry, looked up): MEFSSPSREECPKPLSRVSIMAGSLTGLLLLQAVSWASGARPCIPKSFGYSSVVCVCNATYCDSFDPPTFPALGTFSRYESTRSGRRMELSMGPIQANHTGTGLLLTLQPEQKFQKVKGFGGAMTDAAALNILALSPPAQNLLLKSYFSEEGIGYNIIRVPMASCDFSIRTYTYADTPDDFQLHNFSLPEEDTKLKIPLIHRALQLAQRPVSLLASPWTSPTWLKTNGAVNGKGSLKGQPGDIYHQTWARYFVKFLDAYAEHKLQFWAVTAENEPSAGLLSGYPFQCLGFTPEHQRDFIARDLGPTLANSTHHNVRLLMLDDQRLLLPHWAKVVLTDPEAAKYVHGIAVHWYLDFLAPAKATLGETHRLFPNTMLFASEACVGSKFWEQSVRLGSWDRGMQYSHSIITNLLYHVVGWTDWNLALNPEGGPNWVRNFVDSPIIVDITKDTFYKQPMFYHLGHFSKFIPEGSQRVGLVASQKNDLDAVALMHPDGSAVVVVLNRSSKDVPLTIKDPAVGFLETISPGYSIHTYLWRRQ
How it was run: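 Compounds titrated against 0.2 nM normal enzyme, 30 uM resorufin beta-D-glucopyranoside substrate, citrate/phosphate buffer with taurocholate and tween-20, pH 5.9. Reaction ran 20 min at room temperature; fluorescence (Ex 548/Em 600) gave AC50.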
CCOC(=O)c1sc(NC(=O)CSc2nc(-c3ccco3)cc(C(F)(F)F)n2)c(C#N)c1C was tested, and the Potency was inactive: > 76.9 µM. In the case of COc1ccc(C2C=C(c3ccccc3)Nc3nc(CCCO)nn32)cc1 (stereo not given), the Potency is reported as inactive: > 76.9 µM. For CC1CCCCC1NC(=O)CSc1nnc(CN2CCOCC2)n1C (stereo not given), the Potency was inactive: > 76.9 µM. Cc1csc(NC(=O)CCc2nc3ccccc3s2)n1 was tested, and the Potency was inactive: > 76.9 µM. For Cc1nnc(Sc2cc(C(=O)NCc3ccco3)c3ccccc3n2)s1, the Potency was inactive: > 76.9 µM. In the case of CCN(C(=O)CSc1nnnn1-c1cc(C)ccc1OC)C1CCS(=O)(=O)C1 (stereo not given), the Potency is reported as inactive: > 76.9 µM. For COc1ccc(S(=O)(=O)N2CCCCC2)cc1C(C)C, the Potency was inactive: > 76.9 µM. In the case of Cc1cc(C)n(C(=O)c2ccc(S(=O)(=O)NCC3CCCO3)cc2)n1 (stereo not given), the Potency is reported as inactive: > 76.9 µM. In the case of COc1ccccc1N1CCN(C(=O)c2ccc(S(=O)(=O)N3CCCCC3)cc2)CC1, the Potency is reported as inactive: > 76.9 µM. With O=C(Nc1ccccc1F)C1C2C=CC3(O2)C1C(=O)N(c1cccnc1)C3C(=O)NC1CCCCC1 (stereo not given) the Potency was inactive: > 76.9 µM. For CCN(CC)S(=O)(=O)c1ccc(C(=O)OCn2nnc3ccccc3c2=O)cc1, the Potency was inactive: > 76.9 µM. In the case of O=C(CCN1C(=O)C2CC=C(Cl)CC2C1=O)Nc1ccccc1O (stereo not given), the Potency is reported as inactive: > 76.9 µM. With Cc1cc(NC(=O)CSc2nnc(-c3cccnc3)n2C)no1 the Potency was inactive: > 76.9 µM. With Oc1ccc(Cl)cc1CNc1ccc(Br)cn1 the Potency was “inactive”. With CCOC(=O)CCc1c(C)nc2cc(C3CCCN(C(=O)OC(C)(C)C)C3)[nH]n2c1=O (stereo not given) the Potency was inactive: > 76.9 µM. In the case of COc1ccc(C(C(C(=O)c2ccco2)N2CCOCC2)N2CCOCC2)cc1 (stereo not given), the Potency is reported as inactive: > 76.9 µM. In the case of COc1ccc(NS(=O)(=O)c2ccc(C)c(C(=O)O)c2)cc1, the Potency is reported as inactive: > 76.9 µM. Cc1cccc(N2CCN(C(=O)Cc3c(C(=O)O)[nH]c4ccc(Cl)cc34)CC2)c1C was tested, and the Potency was “inactive”. CCC(=O)N1CCCc2cc(S(=O)(=O)N3CCN(c4ccccn4)CC3)ccc21 was tested, and the Potency was inactive: > 76.9 µM. With Cc1cc(C)nc(-n2nc(C)c(C3(O)C(=O)Nc4ccc(F)cc43)c2N)n1 (stereo not given) the Potency was inactive: > 76.9 µM. Cc1cc(C(=O)NCc2ccccc2Br)no1 was tested, and the Potency was inactive: > 76.9 µM. CCOC(=O)N1CCN(C(=O)CSc2cc(C)nc3c(-c4ccccc4OC)c(C)nn23)CC1 was tested, and the Potency was inactive: > 76.9 µM. With COCc1cc(=O)n2[nH]c(SC)nc2n1 the Potency was inactive: > 76.9 µM. O=C(c1ccc2c(=O)n(-c3ccccc3)c(=O)[nH]c2c1)N1CCCCC1 was tested, and the Potency was inactive: > 76.9 µM. With CCOc1cc(C(=O)Nc2c3c(nn2C(C)(C)C)CS(=O)C3)cc(OCC)c1OCC (stereo not given) the Potency was inactive: > 76.9 µM. With COc1ccc(C(=O)N=c2nc3ccccn3s2)cc1 the Potency was inactive: > 76.9 µM. For CSc1nc(SCC(N)=O)c2c3c(sc2n1)CN(C)CC3, the Potency was inactive: > 76.9 µM. For Cc1cccc(C)c1NS(=O)(=O)c1ccc(F)cc1, the Potency was inactive: > 76.9 µM. With O=C(CSc1ncc(-c2ccccc2)n1-c1ccccc1)NCc1ccco1 the Potency was inactive: > 76.9 µM. In the case of Cc1cc(C)n2nc(C(=O)OCC(=O)c3cc(C)n(C)c3C)nc2n1, the Potency is reported as inactive: > 76.9 µM. In the case of COc1cccc(NC(=O)N2CCCC2C(=O)Nc2ccc3c(c2)OCO3)c1 (stereo not given), the Potency is reported as inactive: > 76.9 µM. With COc1ccccc1CC1(C)NC(=O)N(CC(=O)Nc2cc(C)on2)C1=O (stereo not given) the Potency was inactive: > 76.9 µM. COCCCn1c(SCC(=O)Nc2ccc(C(=O)OC)cc2)nc2ccccc2c1=O was tested, and the Potency was inactive: > 76.9 µM. In the case of COC(=O)c1ccc(Cn2cnc3ccccc3c2=O)cc1, the Potency is reported as inactive: > 76.9 µM. For Cc1ccc2cc(C(c3nnnn3CC3CCCO3)N3CCCC4(CCCCC4)C3)c(=O)[nH]c2c1 (stereo not given), the Potency was active: 10.1 µM. For CCOC(=O)C1C(=O)CC(O)(c2ccccc2)CC1c1ccccc1 (stereo not given), the Potency was inactive: > 76.9 µM. For O=C(Nc1cccc(OCC(=O)N2CCOCC2)c1)C1CCCCC1, the Potency was inactive: > 76.9 µM. With O=C(Nc1ccc(F)cc1)N1CCC(c2nc3c(nnn3Cc3cccc(Cl)c3)c(=O)[nH]2)CC1 the Potency was “inactive”. In the case of O=C(CC1NCCNC1=O)OCc1ccccc1 (stereo not given), the Potency is reported as inactive: > 76.9 µM. In the case of Nc1nc2sc3c(c2c(=O)s1)CCCC3, the Potency is reported as inactive: > 76.9 µM. With O=C(c1cccc2c1C(=O)N(Cc1cccnc1)C2)N1CCN(c2ccccc2)CC1 the Potency was inactive: > 76.9 µM. For CC(=O)Nc1nnc(Cc2ccccc2)s1, the Potency was inactive: > 76.9 µM. In the case of CCn1cc(C(=O)Nc2ccc(-n3cnnn3)c(OC)c2)c(=O)c2ccc(C)nc21, the Potency is reported as inactive: > 76.9 µM. In the case of Cc1ccc(-c2cn3nc(C)c(C)nc3n2)cc1, the Potency is reported as inactive: > 76.9 µM. In the case of CCOC(=O)CCn1c2nc(C)cc(C)c2c(=O)n1-c1ccccc1, the Potency is reported as inactive: > 76.9 µM. For Cc1ccc(C)c2[nH]c(=O)c(CCNC(=O)c3ccc4c(c3)OCO4)cc12, the Potency was inactive: > 76.9 µM. For O=C(c1ccc(NS(=O)(=O)c2cccs2)cc1)N1CCCCC1, the Potency was inactive: > 76.9 µM. With CCn1nc(C(=O)NCCc2ccc(S(N)(=O)=O)cc2)c2ccccc2c1=O the Potency was inactive: > 76.9 µM. In the case of COc1ccc(-c2noc(CCC(=O)Nc3ccc4c(c3)OCCO4)n2)cc1, the Potency is reported as inactive: > 76.9 µM. With COc1ccc(C(=O)COC(=O)c2ccc(OC)c(OC)c2)cc1OC the Potency was inactive: > 76.9 µM. In the case of COc1cccc(CNc2nc3nc(C)cc(C)n3n2)c1, the Potency is reported as inactive: > 76.9 µM. COc1ccc(Cn2c(=O)sc3ccccc32)cc1 was tested, and the Potency was inactive: > 76.9 µM. With Cc1ccc(NC(=O)CSc2nnc(CNC(=O)c3c(F)cccc3Cl)o2)cc1 the Potency was inactive: > 76.9 µM. COc1ccc(C(=O)NCc2nnc(SCC(=O)N3CCc4ccccc43)o2)cc1OC was tested, and the Potency was inactive: > 76.9 µM. In the case of CCN(CC)c1ccc(C2NC(=O)NC(C)=C2C(=O)Nc2ccccc2)cc1 (stereo not given), the Potency is reported as inactive: > 76.9 µM. In the case of C=CCn1c(SCC(=O)Nc2ccc3c(c2)OCO3)nnc1-c1ccccc1, the Potency is reported as inactive: > 76.9 µM. O=C(CCn1c(=O)c2sccc2n(CC(=O)NCc2ccco2)c1=O)NCc1ccccc1 was tested, and the Potency was inactive: > 76.9 µM. c1ccc(-n2nnnc2OCCOc2nnnn2-c2ccccc2)cc1 was tested, and the Potency was inactive: > 76.9 µM. CC(=O)NC1CC2CCCC(C1)N2S(=O)(=O)c1cccc(F)c1 (stereo not given) was tested, and the Potency was inactive: > 76.9 µM. With CN(CCCn1c(=S)[nH]c2ncccc2c1=O)Cc1ccccc1 the Potency was inactive: > 76.9 µM. With COc1cccc(C2=Nn3c(nnc3-c3ccccc3O)SC2)c1 the Potency was inactive: > 76.9 µM. In the case of Cc1ccc(Cn2ccc(NC(=O)c3cc(-c4cccs4)on3)n2)cc1, the Potency is reported as inactive: > 76.9 µM. For O=C(Nn1cnnc1)c1ccncc1, the Potency was inactive: > 76.9 µM. With C/C=C/c1ccc(OC)c(OC(C)=O)c1 the Potency was inactive: > 76.9 µM. For O=C(c1ccccc1-c1nc2ccccc2[nH]1)N1CCOCC1, the Potency was inactive: > 76.9 µM. In the case of COc1cccc(-n2ccnc2SCC(=O)Nc2nccs2)c1, the Potency is reported as inactive: > 76.9 µM. O=C(COc1ncnc2ccccc12)NC(=O)NCc1ccccc1 was tested, and the Potency was inactive: > 76.9 µM. With Cn1c(N2CCN(C(=O)Nc3ccc(C(F)(F)F)cc3)CC2)nc2ccccc21 the Potency was inactive: > 76.9 µM. In the case of CN1CCCC(OC(=O)c2ccc3c(c2)OCCO3)C1 (stereo not given), the Potency is reported as inactive: > 76.9 µM. Cc1cc2c(c(Sc3ccccc3)n1)C(=O)OC2 was tested, and the Potency was inactive: > 76.9 µM. For O=c1[nH]c(SCc2ccccc2Cl)nc2c1CCCC2, the Potency was inactive: > 76.9 µM. O=C(Nc1ccc(N2C(=O)C3C4C=CC(C4)C3C2=O)cc1)Nc1cccnc1 (stereo not given) was tested, and the Potency was inactive: > 76.9 µM. For Cc1nnc2c3ccccc3c(-c3ccccc3)nn12, the Potency was inactive: > 76.9 µM. COc1ccc(CNC(=O)c2ccc(N3CCCC3=O)cc2)cc1 was tested, and the Potency was inactive: > 76.9 µM. For CC(=O)c1cccc(S(=O)(=O)N2CCN(c3nc4cc(C)cc(C)c4cc3C#N)CC2)c1, the Potency was inactive: > 76.9 µM. For Nc1ccc(O)cc1C(=O)OCC(=O)C12CC3CC(CC(C3)C1)C2, the Potency was inactive: > 76.9 µM. COc1ccccc1C1(O)CCN(CC(=O)Nc2c(C)nn(C)c2C)CC1 was tested, and the Potency was inactive: > 76.9 µM. In the case of COc1ccc(N=C2C(=O)Nc3c(C)cccc32)cc1, the Potency is reported as inactive: > 76.9 µM. In the case of CC(C)C(c1nnnn1Cc1cccs1)N1CCN(c2ccccc2)CC1 (stereo not given), the Potency is reported as inactive: > 76.9 µM. For O=C(CSc1nc(-c2ccc(F)cc2)cs1)N1CCOCC1, the Potency was “inactive”. For O=C(Nc1nccs1)C1(S(=O)(=O)c2ccc(Cl)cc2)CC1, the Potency was inactive: > 76.9 µM. With Cc1sc2nc(C(C)C)nc(SCC(=O)NCc3ccco3)c2c1C the Potency was inactive: > 76.9 µM. O=c1[nH]c2ccccc2nc1-c1cccs1 was tested, and the Potency was inactive: > 76.9 µM. With O=C1CC(N2CCC(O)(c3ccc(Cl)cc3)CC2)C(=O)N1 (stereo not given) the Potency was inactive: > 76.9 µM. For CCOc1c(Br)cc(CNc2ncn[nH]2)cc1OC, the Potency was inactive: > 76.9 µM. In the case of COC(=O)c1ccc(Cl)c(NC(=O)CN2CCN(Cc3ccccc3)CC2)c1, the Potency is reported as inactive: > 76.9 µM. With CCOC(=O)c1sc(NC(=O)c2c(C)noc2C)c(C(=O)OCC)c1C the Potency was inactive: > 76.9 µM. In the case of COc1ccc(OC)c(Nc2nc(-c3cccs3)cs2)c1, the Potency is reported as inactive: > 76.9 µM. CC(C)N(Cc1cc2ccccc2[nH]c1=O)C(=O)c1cccnc1 was tested, and the Potency was inactive: > 76.9 µM. For O=C(NCC(=O)N(c1ccccc1)C(C(=O)NCC1CCCO1)c1ccccc1)c1ccco1 (stereo not given), the Potency was inactive: > 76.9 µM.
